# Where a chain is given by its changes, count along the chain named. The list shows a part of the results.
# T1: RBFOX1 RRM (Homo sapiens, UniProt Q9NWB1 109-208)
# T1 sequence: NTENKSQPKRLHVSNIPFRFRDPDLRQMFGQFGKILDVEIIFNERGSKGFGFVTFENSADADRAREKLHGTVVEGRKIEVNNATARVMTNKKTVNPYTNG
# B1: AUAGGAC (DNA:RNA)
# RNA: GGGAGACCGGAAUUCAGAUUGUCCAUAGGACUUAAAUCCCGUCGUAGCCACCA
# DNA 1: CAATCTGAATTCCGGTCTCCC
# DNA 2: TGGTGGCTACGACGGGATT
# B2: CGAAUAU (DNA:RNA)
# RNA: B1 RNA with A25C, U26G, G28A, G29U, C31U
# DNA 1: CAATCTGAATTCCGGTCTCCC
# DNA 2: TGGTGGCTACGACGGGATT
# B3: AUAUUAU (DNA:RNA)
# RNA: B1 RNA with G28U, G29U, C31U
# DNA 1: CAATCTGAATTCCGGTCTCCC
# DNA 2: TGGTGGCTACGACGGGATT
# B4: UAGCAGG (DNA:RNA)
# RNA: GGGAGACCGGAAUUCAGAUUGUCCUAGCAGGUUAAAUCCCGUCGUAGCCACCA
# DNA 1: CAATCTGAATTCCGGTCTCCC
# DNA 2: TGGTGGCTACGACGGGATT
# B5: GAUCUCA (DNA:RNA)
# RNA: B4 RNA with U25G, G27U, A29U, G30C, G31A
# DNA 1: CAATCTGAATTCCGGTCTCCC
# DNA 2: TGGTGGCTACGACGGGATT
# B6: CUAAUUU (DNA:RNA)
# RNA: B1 RNA with A25C, G28A, G29U, A30U, C31U
# DNA 1: CAATCTGAATTCCGGTCTCCC
# DNA 2: TGGTGGCTACGACGGGATT
# B7: CGUAAGC (DNA:RNA)
# RNA: B4 RNA with U25C, A26G, G27U, C28A, G31C
# DNA 1: CAATCTGAATTCCGGTCTCCC
# DNA 2: TGGTGGCTACGACGGGATT
# B8: UAACAAG (DNA:RNA)
# RNA: B4 RNA with G27A, G30A
# DNA 1: CAATCTGAATTCCGGTCTCCC
# DNA 2: TGGTGGCTACGACGGGATT
# B9: ACUUGAU (DNA:RNA)
# RNA: B1 RNA with U26C, A27U, G28U, C31U
# DNA 1: CAATCTGAATTCCGGTCTCCC
# DNA 2: TGGTGGCTACGACGGGATT
# B10: GUUGAGA (DNA:RNA)
# RNA: B1 RNA with A25G, A27U, G29A, A30G, C31A
# DNA 1: CAATCTGAATTCCGGTCTCCC
# DNA 2: TGGTGGCTACGACGGGATT
# B11: GUUGUUU (DNA:RNA)
# RNA: B1 RNA with A25G, A27U, G29U, A30U, C31U
# DNA 1: CAATCTGAATTCCGGTCTCCC
# DNA 2: TGGTGGCTACGACGGGATT
# B12: UUGCCGG (DNA:RNA)
# RNA: B4 RNA with A26U, A29C
# DNA 1: CAATCTGAATTCCGGTCTCCC
# DNA 2: TGGTGGCTACGACGGGATT
# B13: UGGUAAG (DNA:RNA)
# RNA: B4 RNA with A26G, C28U, G30A
# DNA 1: CAATCTGAATTCCGGTCTCCC
# DNA 2: TGGTGGCTACGACGGGATT
# B14: GGGGGCU (DNA:RNA)
# RNA: B1 RNA with A25G, U26G, A27G, A30C, C31U
# DNA 1: CAATCTGAATTCCGGTCTCCC
# DNA 2: TGGTGGCTACGACGGGATT
# B15: UCAGUGA (DNA:RNA)
# RNA: B1 RNA with A25U, U26C, G29U, A30G, C31A
# DNA 1: CAATCTGAATTCCGGTCTCCC
# DNA 2: TGGTGGCTACGACGGGATT
# B16: CACACAA (DNA:RNA)
# RNA: B1 RNA with A25C, U26A, A27C, G28A, G29C, C31A
# DNA 1: CAATCTGAATTCCGGTCTCCC
# DNA 2: TGGTGGCTACGACGGGATT
# B17: UUGAAUG (DNA:RNA)
# RNA: B4 RNA with A26U, C28A, G30U
# DNA 1: CAATCTGAATTCCGGTCTCCC
# DNA 2: TGGTGGCTACGACGGGATT
# B18: AUAUACU (DNA:RNA)
# RNA: B1 RNA with G28U, G29A, A30C, C31U
# DNA 1: CAATCTGAATTCCGGTCTCCC
# DNA 2: TGGTGGCTACGACGGGATT
# B19: CCCCGUC (DNA:RNA)
# RNA: B1 RNA with A25C, U26C, A27C, G28C, A30U
# DNA 1: CAATCTGAATTCCGGTCTCCC
# DNA 2: TGGTGGCTACGACGGGATT
# B20: CUUACUU (DNA:RNA)
# RNA: B1 RNA with A25C, A27U, G28A, G29C, A30U, C31U
# DNA 1: CAATCTGAATTCCGGTCTCCC
# DNA 2: TGGTGGCTACGACGGGATT
# B21: ACGGAAU (DNA:RNA)
# RNA: B1 RNA with U26C, A27G, G29A, C31U
# DNA 1: CAATCTGAATTCCGGTCTCCC
# DNA 2: TGGTGGCTACGACGGGATT
# B22: CGAGUAG (DNA:RNA)
# RNA: B1 RNA with A25C, U26G, G29U, C31G
# DNA 1: CAATCTGAATTCCGGTCTCCC
# DNA 2: TGGTGGCTACGACGGGATT
# B23: GAUACGA (DNA:RNA)
# RNA: B4 RNA with U25G, G27U, C28A, A29C, G31A
# DNA 1: CAATCTGAATTCCGGTCTCCC
# DNA 2: TGGTGGCTACGACGGGATT
# B24: GGACAGU (DNA:RNA)
# RNA: B4 RNA with U25G, A26G, G27A, G31U
# DNA 1: CAATCTGAATTCCGGTCTCCC
# DNA 2: TGGTGGCTACGACGGGATT
# B25: CUACGCA (DNA:RNA)
# RNA: B1 RNA with A25C, G28C, A30C, C31A
# DNA 1: CAATCTGAATTCCGGTCTCCC
# DNA 2: TGGTGGCTACGACGGGATT
# B26: CGUCUUC (DNA:RNA)
# RNA: B1 RNA with A25C, U26G, A27U, G28C, G29U, A30U
# DNA 1: CAATCTGAATTCCGGTCTCCC
# DNA 2: TGGTGGCTACGACGGGATT
# B27: AUAGACU (DNA:RNA)
# RNA: B1 RNA with G29A, A30C, C31U
# DNA 1: CAATCTGAATTCCGGTCTCCC
# DNA 2: TGGTGGCTACGACGGGATT
# B28: AUUCACA (DNA:RNA)
# RNA: B1 RNA with A27U, G28C, G29A, A30C, C31A
# DNA 1: CAATCTGAATTCCGGTCTCCC
# DNA 2: TGGTGGCTACGACGGGATT
# B29: UCAUUUC (DNA:RNA)
# RNA: B1 RNA with A25U, U26C, G28U, G29U, A30U
# DNA 1: CAATCTGAATTCCGGTCTCCC
# DNA 2: TGGTGGCTACGACGGGATT
# B30: UAAACUU (DNA:RNA)
# RNA: B4 RNA with G27A, C28A, A29C, G30U, G31U
# DNA 1: CAATCTGAATTCCGGTCTCCC
# DNA 2: TGGTGGCTACGACGGGATT
# B31: GUUCGGG (DNA:RNA)
# RNA: B4 RNA with U25G, A26U, G27U, A29G
# DNA 1: CAATCTGAATTCCGGTCTCCC
# DNA 2: TGGTGGCTACGACGGGATT
# Target: T1, RBFOX1 RRM
# Test: EMSA; HiTS-Eq, 1 nM pool, 10 min; buffer printed only for the single-RNA assays: 10 mM Tris pH 7.5, 150 mM NaCl, 3.4 mM EDTA, 0.001% NP-40, 30 C
# Details: tags: His6 N-terminal (pET28a); label: 5' 32P
# Outline: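 A pool of RNA with 7 randomized nucleotides, 5′-radiolabelled and with DNA-annealed flanks, was equilibrated at 1 nM for 10 min in 50 µL with purified RbFox RRM, wild type or mutant, across increasing protein concentrations. Free RNA was separated by 8% native PAGE, excised, reverse-transcribed, barcoded by PCR and sequenced. Relative association constants were obtained from read-count changes of each RNA species versus the control reaction and normalised to the cognate motif.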
row,Binder,binding signal
1,B1,0.00455 KA relative to UGCAUGU
2,B2,0.00361 KA relative to UGCAUGU
3,B3,0.00253 KA relative to UGCAUGU
4,B4,0.012 KA relative to UGCAUGU
5,B5,0.00437 KA relative to UGCAUGU
6,B6,0.00335 KA relative to UGCAUGU
7,B7,0.00859 KA relative to UGCAUGU
8,B8,0.00598 KA relative to UGCAUGU
9,B9,0.00798 KA relative to UGCAUGU
10,B10,0.0168 KA relative to UGCAUGU
11,B11,0.0249 KA relative to UGCAUGU
12,B12,0.0154 KA relative to UGCAUGU
13,B13,0.0152 KA relative to UGCAUGU
14,B14,0.0377 KA relative to UGCAUGU
15,B15,0.00654 KA relative to UGCAUGU
16,B16,0.00157 KA relative to UGCAUGU

row,Binder,binding signal
1,B17,0.037 KA relative to UGCAUGU
2,B18,0.00138 KA relative to UGCAUGU
3,B19,0.000367 KA relative to UGCAUGU
4,B20,0.00379 KA relative to UGCAUGU
5,B21,0.0072 KA relative to UGCAUGU
6,B22,0.0107 KA relative to UGCAUGU
7,B23,0.0158 KA relative to UGCAUGU
8,B24,0.027 KA relative to UGCAUGU
9,B25,0.00798 KA relative to UGCAUGU
10,B26,0.0126 KA relative to UGCAUGU
11,B27,0.00258 KA relative to UGCAUGU
12,B28,0.000591 KA relative to UGCAUGU
13,B29,0.00804 KA relative to UGCAUGU
14,B30,0.0047 KA relative to UGCAUGU
15,B31,0.0113 KA relative to UGCAUGU

# Reference: article PMC9911399, “Two distinct binding modes provide the RNA-binding protein RbFox with extraordinary sequence specificity”
